Data as given in PubChem BioAssay AID686978 (National Center for Advancing Translational Sciences (NCATS), 2013).
Screen size: about 420,000 compounds; about 64,000 (15%) were called active. Inconclusive results, whose numbers are uncertain, are shown with a selection of clear calls. Calls come from the whole dose curve; as a rule, active = well fitted inhibition curve with a large enough effect; inconclusive = small, poorly fitted or top-dose-only effect; inactive = flat fitted curve, though single readings scatter. No potency is given beside an inconclusive call; the fits are too rough.
% is set by controls: 0 for no effect and ±100 for the full control effect; potency is the fitted concentration of half-maximal effect; tags give direction and shape of the fitted curve.

Experiment: qHTS for Inhibitors of human tyrosyl-DNA phosphodiesterase 1 (TDP1): qHTS in cells in absence of CPT; note: nearly all actives have a fitted effect of over 55% in size
Conditions: DT40 Tdp1-/- hTDP1 cells, no CPT, ATP luminescence, 48 h; activity change, negative = growth inhibition: at 46.2 µM (top of the series) unless noted
In short: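 No-CPT arm: Tdp1-/-;hTDP1 DT40 cells (400/well) plus compounds, incubated ≥48 hr at 37 °C. Readout CellTiter-Glo luminescence.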
For CN(C)c1nc(OCC(=O)NC(C)(C)C)nc(N(C)C)n1, the “activity change, negative = growth inhibition” value was inactive: 15.8%.
In the case of O=C(N/N=C/C(Br)=C/c1ccccc1)c1cnccn1, the Potency is reported as active: 2.31 µM.
In the case of CCn1c(=O)n(CC)c2cc(NC(=O)CSc3ccc([N+](=O)[O-])cn3)ccc21, the Potency is reported as inconclusive [inhibitor, single point].
With CCCCN(CC)CCCNC(=O)c1sc2nc3n(c(=O)c2c1C)CCCCC3 the “activity change, negative = growth inhibition” value was inactive: -22%.
For O=c1c2sc3nc(N4CCOCC4)c4c(c3c2ncn1C(c1ccccc1)c1ccccc1)CCCC4, the Potency was inconclusive [inhibitor, partial curve].
For Cc1cc(NC(=O)COC(=O)CNC(=O)c2cccs2)c([N+](=O)[O-])cc1C, the “activity change, negative = growth inhibition” value was inactive: -4.44%.
In the case of COc1cc(Nc2ccn3nc(-c4ccccc4Cl)cc3n2)cc(OC)c1OC, the Potency is reported as active: 20.6 µM.
In the case of CCOC(=O)NC(NC(=S)Nc1ccccc1[N+](=O)[O-])C(Cl)(Cl)Cl (centres undefined), the Potency is reported as inconclusive [inhibitor, partial curve, poor fit].
For Cc1cc2c(cc(C(=O)OCC(=O)NC3CCCCC3)n2C)o1, the Potency was inconclusive [inhibitor, partial curve, poor fit].
With COc1cc(OC)cc(C(=O)NC(=S)Nc2cccnc2)c1 the Potency was inconclusive [inhibitor, partial curve].
With COc1ccc(N2C(=O)CC(Sc3nccc(C)n3)C2=O)c(OC)c1 (centres undefined) the Potency was inconclusive [inhibitor, single point].
With COCCNC(=O)c1cc(-c2cccc(Cl)c2)on1 the “activity change, negative = growth inhibition” value was inactive: -12.2%.
With CCOc1ccc(C(C(=O)NC(C)(C)C)N(CCOC)C(=O)CCC(=O)Nc2nccs2)cc1 (centres undefined) the activity change, negative = growth inhibition was inconclusive: -31.3% [inhibitor].
For CCOC(=O)c1sc(NC(=O)c2cc(-c3ccc(C)cc3)nc3ccccc23)c(C#N)c1C, the Potency was active: 16.4 µM.
In the case of CC(C)CCN1CC(=O)N2Cc3[nH]c4ccccc4c3C[C@H]2C1=O, the activity change, negative = growth inhibition is reported as inconclusive: -30.3% [inhibitor].
In the case of Cc1ccc(C)n1-c1ccc(C(=O)N/N=C/c2ccncc2)cc1, the Potency is reported as inconclusive [inhibitor, partial curve].
With Cc1cc(C)c(NC(=O)/C=C\C(=O)O)c([N+](=O)[O-])c1 the Potency was inconclusive [inhibitor, partial curve].
In the case of CC1CC(C)CN(C(=O)COC(=O)c2ccc3c(c2)OCCO3)C1 (centres undefined), the Potency is reported as inconclusive [inhibitor, single point].
For Clc1ccccc1/C=N/NC1=Nc2cccc3cccc1c23, the Potency was inconclusive [inhibitor, single point].
